The campaign covered roughly 310,000 compounds. About 2,200 (0.71%) showed an effect of 50% or more. The effect is printed as a negative number. This is one part of the list.
These compounds were tested against human ether-à-go-go-related gene (hERG) potassium channel (human, UniProt Q12809) (assay: primary screen, population patch clamp on CHO cells stably expressing hERG).
Chain of human ether-à-go-go-related gene (hERG) potassium channel (Q12809 whole entry, looked up): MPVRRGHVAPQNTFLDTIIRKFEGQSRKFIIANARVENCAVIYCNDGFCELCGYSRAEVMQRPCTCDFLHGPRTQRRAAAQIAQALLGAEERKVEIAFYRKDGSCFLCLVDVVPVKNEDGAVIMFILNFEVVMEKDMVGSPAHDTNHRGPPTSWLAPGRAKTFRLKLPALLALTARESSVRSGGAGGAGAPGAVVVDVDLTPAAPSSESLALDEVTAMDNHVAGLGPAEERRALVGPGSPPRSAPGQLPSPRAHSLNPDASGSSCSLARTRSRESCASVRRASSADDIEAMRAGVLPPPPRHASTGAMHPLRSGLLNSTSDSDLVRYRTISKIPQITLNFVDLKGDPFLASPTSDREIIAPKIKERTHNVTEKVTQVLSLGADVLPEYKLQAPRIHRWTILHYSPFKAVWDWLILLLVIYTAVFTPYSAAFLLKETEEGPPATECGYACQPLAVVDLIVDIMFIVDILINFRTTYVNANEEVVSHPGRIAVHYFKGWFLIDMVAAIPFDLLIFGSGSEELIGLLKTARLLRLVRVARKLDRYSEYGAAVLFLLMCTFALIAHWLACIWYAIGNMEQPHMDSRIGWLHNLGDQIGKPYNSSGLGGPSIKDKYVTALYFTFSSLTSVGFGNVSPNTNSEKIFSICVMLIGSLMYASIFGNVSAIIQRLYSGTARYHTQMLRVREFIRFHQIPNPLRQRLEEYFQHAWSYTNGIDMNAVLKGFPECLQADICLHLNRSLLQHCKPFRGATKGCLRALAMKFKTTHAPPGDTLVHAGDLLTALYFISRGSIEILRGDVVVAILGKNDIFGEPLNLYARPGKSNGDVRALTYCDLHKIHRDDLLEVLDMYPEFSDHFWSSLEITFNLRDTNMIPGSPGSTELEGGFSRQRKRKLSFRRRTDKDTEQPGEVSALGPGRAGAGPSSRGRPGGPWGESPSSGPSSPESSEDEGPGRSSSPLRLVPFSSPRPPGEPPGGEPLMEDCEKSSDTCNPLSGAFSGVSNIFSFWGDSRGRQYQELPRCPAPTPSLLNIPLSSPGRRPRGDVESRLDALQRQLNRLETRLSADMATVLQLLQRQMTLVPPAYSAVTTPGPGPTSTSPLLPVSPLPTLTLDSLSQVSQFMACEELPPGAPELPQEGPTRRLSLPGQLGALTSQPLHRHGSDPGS

SMILES | hERG current change (%, negative = inhibition) at 1uM [%]
CC1CCc2c(sc3c2C2=NS(=O)(=O)CCN2C=N3)C1 (centres unmarked) | 15
CN1CCN(C(=O)C2CCN(S(=O)(=O)c3ccc(F)cc3)CC2)CC1 | 9.29
c1ccc(CSC2=NCCS2)cc1 | 7.18
CCCCCNC(=O)Cn1c(=O)c2c(ncn2CC(C)C)n(Cc2ccccc2)c1=O | 9.23
CCOc1ccccc1NC(=O)C1CCN(C(=O)NCc2ccccc2)CC1 | 14
O=C(NNc1ncc(C(F)(F)F)cc1Cl)c1c(Cl)cccc1Cl | -12
CCc1ccc(NC(=O)c2cc(C)nn2-c2ccccc2)cc1 | 13.1
CC(=O)c1csc(-c2ccccc2)n1 | 14.6
COC(=O)c1cnn2c(C(F)(F)F)cc(-c3ccco3)nc12 | 14.3
CCOC(=O)C(CC)Sc1nc2c(cnn2-c2ccccc2)c(=O)[nH]1 (centres unmarked) | 8.79
COCCNC(=S)N1CCN(c2nc(-c3ccccc3)cs2)CC1 | 8.47
O=C(O)C1CCN(C(=O)c2ccccc2C(=O)N2CCC(C(=O)O)CC2)CC1 | 22.3
CC1CC(=O)Nc2ccccc2N1S(=O)(=O)c1ccc(Br)cc1 (centres unmarked) | 18.9
NC(=O)NC(=O)CSc1ccccc1 | 7.79
CC1CC(OC(=O)CN2CCCCC2)CC(C)(C)C1 (centres unmarked) | 8.75
CC(=O)Nc1nc2ccccc2n1Cc1ccccc1 | 8.01
Cc1ccc2[nH]c(SCC(=O)N3CCOCC3)nc2c1C | 3.17
CC(=O)N1CCSc2ccc(S(=O)(=O)Nc3ccccc3C)cc21 | 3.51
CN(C)c1ccc(CNC(=O)c2cc(S(=O)(=O)N3CCCC3)cn2C)cc1 | 8.54
Cc1nnc2sc(SCc3ccccc3Cl)nn2c1=O | -2.74
CC(=O)C(Cc1ccccc1)NC(=O)CN(C)Cc1ccccc1Cl (centres unmarked) | 7.15
Cc1cc(=O)oc2c(C)c(OC(C)C(=O)NCC(O)c3ccccc3)ccc12 (centres unmarked) | 12.3
Cc1ccc(C(=O)OCC(=O)N2CC(C)CC(C)C2)cc1S(=O)(=O)N1CCCCC1 (centres unmarked) | -6.87
COc1cc(C(=O)OCC(=O)N(CC(C)C)C2CCS(=O)(=O)C2)ccc1OCC(C)C (centres unmarked) | -9.36
COc1ccc(N2C(=O)CC(n3cnc4ccccc43)C2=O)cc1 (centres unmarked) | 13
COc1ccc(C(CNC(=O)C2CC(=O)N(Cc3ccc(C)cc3)C2)N(C)C)cc1 (centres unmarked) | -11.2
